# According to PubChem BioAssay AID720709 (National Center for Advancing Translational Sciences (NCATS), 2013):
# The whole screen tested about 360,000 compounds, of which about 520 (0.14%) were called active. This list was built around the results that the source calls inconclusive (neither active nor inactive); the mix of calls is not that of the screen. The call rests on the fitted dose curve; in most records, active means well fitted inhibition curve with a large enough effect; inconclusive means small, poorly fitted or top-dose-only effect; inactive means no such curve, though single readings can be large or run the other way. Potencies of inconclusive entries are left out as doubtful fits.
# Molecular target: Rap guanine nucleotide exchange factor 3 (Homo sapiens) (UniProt O95398)
# Assay: qHTS for Antagonist of cAMP-regulated guanine nucleotide exchange factor 3 (EPAC1): primary screen; further: nearly all actives have a fitted effect of over 50% in size
# Conditions: EPAC1 GEF assay, Rap1b-BODIPY-GDP exchange fluorescence; series mostly up to 115 µM
# Potency means the concentration at half of the fitted maximal effect; tags describe the fitted curve by direction and shape.
# Chain of UniProt O95398 (O95398 whole entry, looked up): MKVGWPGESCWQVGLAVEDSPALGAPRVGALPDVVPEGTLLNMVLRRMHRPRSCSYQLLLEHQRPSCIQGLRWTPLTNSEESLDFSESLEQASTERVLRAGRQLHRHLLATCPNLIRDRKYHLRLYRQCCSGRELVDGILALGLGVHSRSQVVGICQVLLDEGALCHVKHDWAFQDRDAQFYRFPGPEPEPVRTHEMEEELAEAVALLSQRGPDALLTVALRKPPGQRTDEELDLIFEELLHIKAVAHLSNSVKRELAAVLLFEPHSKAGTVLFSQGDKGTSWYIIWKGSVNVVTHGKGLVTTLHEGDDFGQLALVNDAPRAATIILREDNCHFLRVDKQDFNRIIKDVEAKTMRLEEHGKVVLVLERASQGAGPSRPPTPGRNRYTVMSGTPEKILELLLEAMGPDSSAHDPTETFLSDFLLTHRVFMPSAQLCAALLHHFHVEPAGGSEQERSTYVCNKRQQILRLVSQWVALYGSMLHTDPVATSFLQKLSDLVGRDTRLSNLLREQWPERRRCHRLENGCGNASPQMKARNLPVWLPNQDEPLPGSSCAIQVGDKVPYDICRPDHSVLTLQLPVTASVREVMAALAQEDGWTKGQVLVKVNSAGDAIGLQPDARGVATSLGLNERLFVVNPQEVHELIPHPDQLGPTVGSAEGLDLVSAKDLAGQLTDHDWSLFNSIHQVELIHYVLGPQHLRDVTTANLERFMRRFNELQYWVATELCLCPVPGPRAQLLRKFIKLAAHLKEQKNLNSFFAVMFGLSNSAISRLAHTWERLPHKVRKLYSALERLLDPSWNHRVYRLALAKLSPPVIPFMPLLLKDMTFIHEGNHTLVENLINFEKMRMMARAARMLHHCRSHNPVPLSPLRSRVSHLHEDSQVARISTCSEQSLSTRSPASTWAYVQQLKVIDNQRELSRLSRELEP
row,Structure (SMILES),Potency
1,Cc1ccccc1CN1CCN(C(=O)c2cccc3ccccc23)CC1,inactive
2,CC1=C(C#N)c2nc(N)c(C#N)c(C)c2/C1=C\c1ccc(-c2ccccc2C(=O)O)o1,"inconclusive [inhibitor, full curve]"
3,O=C(C(=O)N1CCN(c2ccncc2)CC1)c1cccc(Br)c1,inactive
4,O=C(CSc1nc2ccccc2o1)c1cc2ccccc2oc1=O,"inconclusive [inhibitor, partial curve]"
5,CCOC(=O)c1[nH]c2c(c1C)C(=O)CC(c1ccco1)C2 (configuration not stated),"inconclusive [inhibitor, partial curve]"
6,CCOC1=NC(=C(c2ccccc2)c2ccccc2)OC1=O,"inconclusive [inhibitor, single point]"
7,COc1ccc(OC)c(N=C(N)N=C(N)N)c1,"inconclusive [inhibitor, single point]"
8,CN(C)S(=O)(=O)c1ccc(Cl)c(NC(=O)COC(=O)C2CSC3(C)CCC(=O)N23)c1 (configuration not stated),"inconclusive [inhibitor, single point]"
9,COc1ccc(F)cc1-c1cc(NC(C)=O)c2ncc(-c3cc(OC)c(OC)c(OC)c3)n2c1,"inconclusive [inhibitor, partial curve]"
10,COC1OC2COC(c3ccccc3)OC2C2OC12 (configuration not stated),inactive
11,COc1ccccc1-c1nnc2n1N=C(c1ccc(O)c(O)c1)CS2,"inconclusive [inhibitor, single point]"
12,COc1ccc(S(=O)(=O)N2CCC3CC2c2c(-c4ccc(C(F)(F)F)cc4)cccc23)cc1 (configuration not stated),inactive
13,NNC(=O)Cn1c(-c2nonc2N)nc2ccccc21,"inconclusive [inhibitor, partial curve, poor fit]"
14,CC(C)(C)c1nc(NCCO)c2nnn(Cc3ccccc3)c2n1,inactive
15,O=C(c1ccc(NC2=NC3CS(=O)(=O)CC3S2)cc1)N(CCO)Cc1ccccc1 (configuration not stated),inactive
16,COc1ccccc1NS(=O)(=O)c1cc(NC(=O)CNC(=O)c2ccccc2)ccc1C,"inconclusive [inhibitor, full curve, poor fit]"
17,O=C(COc1ccc(F)cc1)NNC(=O)c1cc2ccccc2oc1=O,"inconclusive [inhibitor, single point]"
18,Cc1[nH]n(-c2ccccc2)c(=O)c1C=Nc1cccc(F)c1,"inconclusive [inhibitor, partial curve]"
19,Cc1csc(SCC(=O)Nc2ccc(C)c(F)c2)n1,inactive
20,CC(=O)Nc1ccc(C(=O)N/N=C/c2cccnc2)cc1,"inconclusive [inhibitor, single point]"
21,CCC1=NN2C(=N)/C(=C/c3ccc(OS(=O)(=O)c4ccccc4)cc3)C(=O)N=C2S1,"inconclusive [inhibitor, single point]"
22,COc1ccc(C(=O)NC(=S)NCCc2ccccc2)cc1,inactive
23,CC(=O)Nc1ccc(NS(=O)(=O)c2ccc(C)cc2)c([N+](=O)[O-])c1,"inconclusive [inhibitor, single point]"

row,Structure (SMILES),Potency
1,CC12CCC(C(=O)Nc3ccccc3Cl)(C(Br)C1=O)C2(C)C (configuration not stated),"inconclusive [inhibitor, full curve, poor fit]"
2,C=C1CC(Cn2cc(Br)c(=O)[nH]c2=O)(c2ccc(-c3ccccc3)cc2)OC1=O (configuration not stated),"inconclusive [inhibitor, single point]"
3,N#CCCN1CCN(C(=S)c2ccc(-c3ccc(Cl)c(Cl)c3)o2)CC1,inactive
4,O=C(C[n+]1cccc(CNC(=O)c2ccc(OC(F)F)cc2)c1)c1ccccc1,"inconclusive [inhibitor, partial curve, poor fit]"
5,O=C1CC(c2ccccc2)CC(=O)C1CS(=O)(=O)c1ccccc1 (configuration not stated),inactive
6,C[N+](C)(C)CCN1C(=O)CSC1=O,"inconclusive [inhibitor, full curve, poor fit]"
7,C/C=C/C=C/C(=O)N1CC2(CC(c3cccc(NC(=O)/C=C/C)c3)=NO2)C[C@@H]1C(N)=O (some centres not stated),inactive
8,Cc1nc(-c2ccc(NS(=O)(=O)c3ccccc3)cc2)cs1,"inconclusive [inhibitor, full curve, poor fit]"
9,Cc1ccc(C(=O)C[n+]2cccc3cc(C)ccc32)cc1,"inconclusive [inhibitor, single point]"
10,CCCC1CC(C)(c2csc(Nc3ccc(OCC)cc3)n2)OC1=O (configuration not stated),"inconclusive [inhibitor, partial curve]"
11,CC(C)(C)c1ccc(OCCNC(=S)Nc2ccccc2)cc1,"inconclusive [inhibitor, full curve, poor fit]"
12,O=C(COC(=O)c1ccccc1[N+](=O)[O-])NCCCc1ccccc1,"inconclusive [inhibitor, partial curve]"
13,COc1cc2cc3c(N)c(C(=O)NCc4ccco4)sc3nc2cc1OC,inactive
14,O=C(Nc1ccc(Cl)c(NC(=O)c2cccs2)c1)c1ccco1,"inconclusive [inhibitor, partial curve]"
15,O=C(Nc1ccc2[nH]ccc2c1)c1cccs1,inactive
16,Cc1cccn2c(=O)c3cc(C(=O)NCc4ccco4)c(=N)n(C4CCCC4)c3nc12,"inconclusive [inhibitor, partial curve]"
17,O=C(COC(=O)C1(c2ccccc2F)CCCC1)Nc1ncc(C(F)(F)F)cc1Cl,inactive
18,N#Cc1ccccc1S(=O)(=O)N1CCN(C(=O)C2CC(=O)N(c3ccc4c(c3)OCCO4)C2)CC1 (configuration not stated),inactive
19,O=C(O)CN1C(=O)/C(=C\c2ccccc2OCc2ccc(Cl)cc2Cl)SC1=S,"inconclusive [inhibitor, partial curve]"
20,O=C1/C(=C\c2ccc(Br)cc2)SC(=S)N1NS(=O)(=O)c1ccccc1,"inconclusive [inhibitor, partial curve]"
21,Cc1ccc(S(=O)(=O)N(Cc2ccc(Cl)cc2)c2ccccc2C(=O)NCc2cccnc2)cc1,"inconclusive [inhibitor, single point]"
22,N#C/C(=C\c1ccccc1)C(=O)N(c1ccccn1)C1CCCCC1,"inconclusive [inhibitor, partial curve, poor fit]"
23,COc1cccc(C(=O)Nc2ccc(F)cc2F)c1,inactive

row,Structure (SMILES),Potency
1,COc1ccc(NC(=O)C(c2ccc(OC)cc2)N(C)C(=O)Cc2cccs2)cc1 (configuration not stated),"inconclusive [inhibitor, single point]"
2,Cc1[nH]n(C(N)=S)c(=O)c1N=Nc1ccc2ccccc2c1,inactive
3,Cc1onc(-c2ccccc2Cl)c1-c1nc(-c2ccccn2)no1,"inconclusive [inhibitor, partial curve]"
4,C/C=C/c1ccc(OCCOCCOc2cccc3cccnc23)c(OC)c1,"inconclusive [inhibitor, full curve, poor fit]"
5,CC(C)(C)C(=O)Nc1scc(-c2ccc(-c3ccccc3)cc2)c1C(=O)O,"inconclusive [inhibitor, partial curve]"
6,COc1ccc(NC(=O)C(C)SCc2ccccc2)cc1 (configuration not stated),"inconclusive [inhibitor, single point]"
7,O=C1NC2c3ccccc3C(=O)N2c2c1cnn2-c1ccccc1 (configuration not stated),"inconclusive [inhibitor, partial curve, poor fit]"
8,CC(=O)Nc1ccc(NC(=O)/C=C/c2cccc(C(F)(F)F)c2)cc1,"inconclusive [inhibitor, full curve, poor fit]"
9,C=C[C@]1(C)C=C2CCC3[C@](C)(CCC[C@@]3(C)C(=O)O)C2CC1 (some centres not stated),"inconclusive [inhibitor, partial curve]"
10,CCc1nnc(NS(=O)(=O)c2ccc(NC(=S)NC(=O)/C=C/c3ccc(F)cc3)cc2)s1,active: 22.4 µM
11,Cc1ccc(N2CC(C(=O)OCC(=O)Nc3ccc(F)cc3F)CC2=O)cc1 (configuration not stated),"inconclusive [inhibitor, full curve, poor fit]"
12,COc1ccc2c(c1)Cc1sc(NC(=O)c3ccccc3)nc1-2,inactive
13,CCc1ccc(S(=O)(=O)/N=C2\C=C(Nc3ccc(O)cc3)C(=O)c3ccccc32)cc1,"inconclusive [inhibitor, partial curve]"
14,CCCC(=O)Nc1nnc(/C=C/c2ccccc2)s1,"inconclusive [inhibitor, single point]"
15,CC1(C(=O)NS(=O)(=O)c2ccc3ccccc3c2)CCN1C(=O)Cc1ccc(-c2ccccc2)cc1 (configuration not stated),"inconclusive [inhibitor, partial curve]"
16,CC(C)c1ccc(NC(=O)CCCC(=O)NCCc2ccccc2)cc1,"inconclusive [inhibitor, full curve, poor fit]"
17,Cc1cccc(NC(=O)CSc2nnc(-c3ccccc3C)o2)c1,inactive
18,CC1(Cc2cc(Cl)ccc2C(F)(F)F)C(=O)Nc2ccc(S(=O)(=O)NC3CCCCC3)cc21 (configuration not stated),"inconclusive [inhibitor, full curve, poor fit]"
19,Cc1cc(-c2nc3ncccc3o2)ccc1NC(=O)c1ccc([N+](=O)[O-])o1,"inconclusive [inhibitor, single point]"
20,CCOC(=O)c1ccc(NC(=S)Nc2cccc(C)n2)cc1,"inconclusive [inhibitor, single point]"
21,Cc1ccc(NC(=O)C2(C)CCN2C(=O)c2ccccc2CCc2ccccc2)cc1C (configuration not stated),"inconclusive [inhibitor, full curve, poor fit]"
